Laboratory results from patent US20230089255A1, “COMBINATIONS OF DGK INHIBITORS AND CHECKPOINT ANTAGONISTS” (BRISTOL-MYERS SQUIBB COMPANY, priority 2019, published 2023).

Columns and labels:
[1] = biological target: T1, human DGKα (Homo sapiens, UniProt P23743); test: DGKα LIPGLO in vitro DGK inhibition assay (extruded liposome substrate); type: biochemical
T1 construct: TVMV protease cleavage site (C); Hexa-His (C); made in house; host or cells: Sf9 insect cells (baculovirus)

[2] = biological target: T2, human DGKζ (Homo sapiens, UniProt Q13574); test: DGKζ LIPGLO in vitro DGK inhibition assay (extruded liposome substrate); type: biochemical; conditions: 5 nM enzyme, read-out: DGKz LIPGLO IC50
T2 construct: TVMV protease cleavage site (C); Hexa-His (C); made in house; host or cells: Sf9 insect cells (baculovirus)

[3] = system: OT-1 CD8 T cells; test: OT1 CD8 T cell / peptide-pulsed MC38 co-culture IL-2 assay; type: cell-based, mouse; conditions: MC38 pulsed with OVA, A2, Q4, T4, Q4H7 peptides, FIGS. 4A-F
Procedure: This assay was conducted as follows: MC38 cells (murine colon adenocarcinoma cells) were acquired from and cultured in 10% fetal bovine serum (Invitrogen/ThermoFisher Scientific) and RPMI 1640 Medium (Gibco/ThermoFisher Scientific). Ova and heteroclitic peptide variants were acquired from AnaSpec and resuspended according to manufacturer's protocol. MC38 cells were pulsed with 1 μg/mL of peptide or indicated concentration for 3 hours then free peptide was washed out. […] MC38-protein pulsed cells were added to the plate and co-cultured overnight at 37° C. Supernatants were collected and IL-2 was measured using AlphaLISA (PerkinElmer).

[4] = system: HCT116-GFP cells; test: CMV specific human CD8 T cell / peptide-pulsed HCT116-GFP co-culture; type: cell-based
Procedure: The assay was conducted as follows: HCT116-GFP (human colorectal cancer) cells were acquired from Cellomics. HCT116-GFP were pulsed with A2 and B35 peptides (Astarte) at indicated concentrations for 1 hour followed by washout. Cells were plated and allowed to adhere overnight. CMV specific human CD8 T cells (Astarte) were thawed, treated with DGKi Compound 15 for 1 hour then added to the HCT116-GFP cells. Supernatant was collected at 24 hours post co-culture and IFNg was measured using AlphaLISA (PerkinElmer). Images of GFP were taken using a fluorescent microscope.

[5] = system: HCT116-GFP B2M knock-out clones; test: CMV specific human CD8 T cell / B2M CRISPR KO HCT116-GFP co-culture IFN-γ assay; type: cell-based; conditions: tumor cells having reduced class I MHC; 24 hours; FIG. 6B
Procedure: The assay was conducted as follows: HCT116-GFP were acquired from Cellomics and cultured in 10% fetal bovine serum (Invitrogen/ThermoFisher Scientific) and RPMI 1640 Medium (Gibco/ThermoFisher Scientific). B2M guide RNA (Synthego) was introduced to HCT116-GFP cells by nucleofection (Lonza). After recovery, cells were plated in individual wells to generate single cell clones. Clones were stained for B2M (Biolegend) and evaluated by flow cytometry. Clones were then pulsed with A2 or B35 peptides (Astarte) at 1 mg/mL for 1 hour followed by washout. Cells were plated and allowed to adhere overnight. CMV specific human CD8 T cells (Astarte) were thawed, treated with DGKi Compound 15 for 1 hour and then added to the HCT116 cells. Supernatant was collected at 24 hours post co-culture and IFN-γ was measured using AlphaLISA (PerkinElmer).

[6] = system: naïve human CD8 T cells; test: Human CD8 T cells IFN-γ assay; type: cell-based; conditions: anti-CD3 plus anti-CD28; 100% = 3 μM reference compound; read-out: HuCD8 INFG Normalized EC50
Procedure: Frozen naïve human CD8 T cells were thawed in AIM-V media, incubated for 2 h in 37° C., and counted. The 384-well tissue culture plate was coated overnight at 4° C. with 20 μL anti-human CD3 at 0.05 μg/mL in PBS, which was removed off the plate before 40,000 cells per 40 microliters CD8 T cells with 0.1 μg/mL soluble anti-human CD28 were added to each well. The compounds were transferred using an Echo liquid handler to the cell plate immediately after the cells were plated. After 20 h incubation at 37° C. incubator, 3 microliters per well supernatants transferred into a new 384-well white assay plate for cytokine measurement.
Interferon-γ (IFN-γ) was quantitated using the AlphLISA kit (Cat#AL217) as described by the manufacturer manual (Perkin Elmer). The counts from each well were converted to IFN-γ concentration (pg/mL).

[7] = system: human venous whole blood; test: Human whole blood IFN-γ assay; type: cell-based; conditions: anti-CD3 and anti-CD28 1 μg/mL, 100% = 3 μM reference compound, read-out: INFg Whole Blood Normalized Agonist EC50
Procedure: Human venous whole blood (22.5 μL per well), obtained from healthy donors, was pre-treated with compounds for one hour at 37° C. in a humidified 95% air/5% CO2 incubator. The blood was stimulated with 2.5 μL anti-human CD3 and anti-CD28 mAb at a final concentration of 1 μg/mL each for 24 hours at 37° C. IFN-γ in the supermatants was measured using AIphLNSA kit (Cat#AL217).

[8] = biological target: OT1 TCR specific for ovalbumin; test: TCR binding affinities of OVA peptide variants; parameters: species or system mouse; conditions: read-out: KD (μM), TCR binding affinity
[9] = biological target: OT1 TCR (class I restricted transgenic TCR of OT1 mice, specific for ovalbumin peptide SIINFEKL); test: TCR binding affinity of the peptide; method not stated
[10] = extruded liposome substrate, 5 nM enzyme, read-out: DGKa LIPGLO IC50

Question: For CCC(c1ccc(F)cc1F)N1C[C@H](C)N(c2cc(=O)n(C)c3ccc(C#N)nc23)C[C@H]1C (stereo partly drawn) [DGKi Compound 12, 8-((2S,5R)-4-(1-(2,4-difluorophenyl)propyl)-2,5-dimethylpiperazin-1-yl)-5-methyl-6-oxo-5,6-dihydro-1,5-naphthyridine-2-carbonitrile], which IC50 [1, 10] is on record?
Answer: 0.57 µM

Question: What about the IC50 [2] of the same molecule?
Answer: 0.46 µM

Question: Cn1c(=O)c([N+](=O)[O-])c(N2CCN(C(c3ccc(F)cc3)c3ccc(F)cc3)CC2)c2nc(C#N)ccc21 [DGKi Compound 15, 8-(4-(bis(4-fluorophenyl)methyl)piperazin-1-yl)-5-methyl-7-nitro-6-oxo-5,6-dihydro-1,5-naphthyridine-2-carbonitrile] was tested. Which IC50 [1] did it give?
Answer: 3.4 µM

Question: And the “antigen requirement for T cell antigen recognition and activation (IL-2 secretion)” value [3]?
Answer: lowers both the affinity requirement and the concentration requirement of antigen

Question: And the “human CTL effector function (IFNg secretion)” value ([4]; 24 hours post co-culture, FIG. 5A)?
Answer: increases human CTL effector function

Question: And the tumor cell killing ([4]; HCT116-GFP, day 3, FIG. 5B)?
Answer: enhances tumor cell killing

Question: And the IC50 [2]?
Answer: 0.21 µM

Question: What about the “IFN-γ levels from T cells” value [5] of the same molecule?
Answer: increases IFN-γ levels

Question: “8-[(2S,5R)-4-[1-(2,6-difluorophenyl)ethyl]-2,5-dimethylpiperazin-1-yl]-5-methyl-6-oxo-5,6-dihydro-1,5-naphthyridine-2-carbonitrile [DGKi Compound 11]” was tested. Which EC50 [6] did it give?
Answer: 0.022 µM

Question: What about the IC50 [1, 10] of the same molecule?
Answer: 0.14 µM

Question: And the EC50 ([7]; 24 hours)?
Answer: 0.65 µM

Question: And the IC50 [2]?
Answer: 0.57 µM

Question: For “SIINFEKL [OVA, ovalbumin peptide recognised by the OT1 TCR]”, which Kd [8] is on record?
Answer: 1 µM

Question: How did the Kd [8] turn out when “SAINFEKL [A2, derivative of the OVA peptide]” was run?
Answer: 4 µM

Question: For CCC(c1ccc(OCC2CC2)cc1F)N1C[C@H](CC)N(c2nc(=O)n(C)c3ccc(C#N)nc23)C[C@H]1CC (single isomer, unassigned) [DGKi Compound 30], which EC50 ([7]; Homo sapiens, 24 h) is on record?
Answer: 11.3 µM

Question: “SIIQFEKL [Q4, derivative of the OVA peptide]” was tested. Which Kd [8] did it give?
Answer: 36 µM

Question: “SIIQFEHL [Q4H7, derivative of the OVA peptide]” was tested. Which Kd [8] did it give?
Answer: 167 µM

Question: How did the Kd [8] turn out when “SIITFEKL [T4, derivative of the OVA peptide]” was run?
Answer: 122 µM

Question: Which Kd [9] does the source give for SAINFEKL (peptide-MHC, part only; not given: MHC class I heavy chain, b2m, part only) [A2 peptide (SAINFEKL), derivative of the OVA peptide] here?
Answer: 4 µM

Question: Which Kd [9] does the source give for SIIQFEKL (peptide-MHC, part only; not given: MHC class I heavy chain, b2m, part only) [Q4 peptide (SIIQFEKL), derivative of the OVA peptide] here?
Answer: 36 µM

Question: For SIITFEKL (peptide-MHC, part only; not given: MHC class I heavy chain, b2m, part only) [T4 peptide (SIITFEKL), derivative of the OVA peptide], which Kd [9] is on record?
Answer: 122 µM

Question: Which Kd [9] does the source give for SIIQFEHL (peptide-MHC, part only; not given: MHC class I heavy chain, b2m, part only) [Q4H7 peptide (SIIQFEHL), derivative of the OVA peptide] here?
Answer: 167 µM

Where two headings read alike, the source gives them in different places.
